{"source": "paper PMC4336329", "about": "(PLoS ONE, 2015)", "note": "Among all 310,000 compounds or so, about 2,200 (0.71%) showed an effect of 50% or more. Effects have a minus sign here. The list shows a part of the results."}
{"biological_target": "human ether-à-go-go-related gene (hERG) potassium channel (human, UniProt Q12809)", "sequence (Q12809 whole entry, looked up)": "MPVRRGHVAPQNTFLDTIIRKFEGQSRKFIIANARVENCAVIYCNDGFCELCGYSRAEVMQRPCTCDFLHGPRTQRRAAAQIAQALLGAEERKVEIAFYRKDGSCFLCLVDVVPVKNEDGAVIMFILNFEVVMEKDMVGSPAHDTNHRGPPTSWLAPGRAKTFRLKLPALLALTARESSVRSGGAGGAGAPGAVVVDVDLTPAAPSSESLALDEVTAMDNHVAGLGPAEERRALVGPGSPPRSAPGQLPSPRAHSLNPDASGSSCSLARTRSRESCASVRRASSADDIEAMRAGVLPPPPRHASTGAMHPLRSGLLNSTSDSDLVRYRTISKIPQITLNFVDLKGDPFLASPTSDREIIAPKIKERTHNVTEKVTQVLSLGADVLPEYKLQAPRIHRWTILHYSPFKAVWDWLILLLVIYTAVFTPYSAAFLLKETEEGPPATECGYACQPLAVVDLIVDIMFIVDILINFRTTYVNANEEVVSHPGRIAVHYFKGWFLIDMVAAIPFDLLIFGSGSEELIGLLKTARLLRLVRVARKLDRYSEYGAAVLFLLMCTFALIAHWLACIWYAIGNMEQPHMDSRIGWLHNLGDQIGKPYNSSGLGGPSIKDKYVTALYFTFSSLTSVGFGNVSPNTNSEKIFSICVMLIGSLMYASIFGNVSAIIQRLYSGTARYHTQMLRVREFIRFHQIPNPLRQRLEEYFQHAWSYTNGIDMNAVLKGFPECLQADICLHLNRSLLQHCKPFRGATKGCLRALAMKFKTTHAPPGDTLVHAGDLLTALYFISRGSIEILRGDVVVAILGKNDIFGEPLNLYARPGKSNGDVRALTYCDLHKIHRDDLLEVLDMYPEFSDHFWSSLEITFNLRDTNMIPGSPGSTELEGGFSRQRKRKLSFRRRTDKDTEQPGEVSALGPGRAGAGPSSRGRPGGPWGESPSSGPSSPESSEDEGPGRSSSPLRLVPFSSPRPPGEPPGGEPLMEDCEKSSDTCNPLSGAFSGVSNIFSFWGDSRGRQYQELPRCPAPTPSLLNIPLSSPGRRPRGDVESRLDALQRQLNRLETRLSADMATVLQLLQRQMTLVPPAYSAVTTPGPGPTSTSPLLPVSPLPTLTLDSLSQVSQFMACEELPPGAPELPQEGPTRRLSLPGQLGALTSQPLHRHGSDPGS", "experiment": "primary screen, population patch clamp on CHO cells stably expressing hERG", "units": {"hERG current change (%, negative = inhibition) at 1uM": "%"}}
{"molecule": "Cc1ncc(CO)c2cc(S(=O)(=O)c3ccc(F)cc3)c(=O)oc12", "hERG current change (%, negative = inhibition) at 1uM": 17.8}
{"molecule": "CC(C)CCn1c(CN2CCOCC2)nc2c1c(=O)n(C)c(=O)n2C", "hERG current change (%, negative = inhibition) at 1uM": 7.31}
{"molecule": "CCS(=O)(=O)c1ccc2oc(SCC(=O)NC3CCCC(C)C3C)nc2c1", "note": "(stereo not drawn)", "hERG current change (%, negative = inhibition) at 1uM": 1.7}
{"molecule": "Cc1nc(NCC2CCCO2)c2nnn(Cc3ccccc3)c2n1", "note": "(stereo not drawn)", "hERG current change (%, negative = inhibition) at 1uM": 10}
{"molecule": "C=CCNc1ncnc2ccc(Br)cc12", "hERG current change (%, negative = inhibition) at 1uM": 12.4}
{"molecule": "COc1ccc(N2CC(C(=O)Nc3nc4ccc(S(C)(=O)=O)cc4s3)CC2=O)cc1", "note": "(stereo not drawn)", "hERG current change (%, negative = inhibition) at 1uM": 18}
{"molecule": "O=C(N/N=C1/CCCc2ccccc21)c1cc([N+](=O)[O-])cc([N+](=O)[O-])c1", "hERG current change (%, negative = inhibition) at 1uM": -7.01}
{"molecule": "c1csc(CNc2ncnc3sccc23)c1", "hERG current change (%, negative = inhibition) at 1uM": -1.9}
{"molecule": "CC1CN(C(C)C(=O)NC(c2ccccc2)c2ccccc2)CC(C)O1", "note": "(stereo not drawn)", "hERG current change (%, negative = inhibition) at 1uM": 9.48}
{"molecule": "NC(=O)c1ccc(CSc2nc3ccccc3s2)cc1", "hERG current change (%, negative = inhibition) at 1uM": 12.1}
{"molecule": "COc1ccccc1OCC(=O)OCc1cc(-c2ccco2)on1", "hERG current change (%, negative = inhibition) at 1uM": 15.9}
{"molecule": "O=c1cc(N2CCN(Cc3ccccc3)CC2)[nH]c(=O)n1Cc1ccc(F)cc1", "hERG current change (%, negative = inhibition) at 1uM": 2.68}
{"molecule": "CCC(=O)OC1(C)C(=O)C=C2C=C(C3CC3)OC=C2C1=O", "note": "(stereo not drawn)", "hERG current change (%, negative = inhibition) at 1uM": 9.36}
{"molecule": "CCOC(=O)C1CCN(S(=O)(=O)c2cc(C(=O)N3CCCCC3)ccc2OC)CC1", "hERG current change (%, negative = inhibition) at 1uM": 12.2}
{"molecule": "COC(=O)CC1COc2ccccc2N1S(=O)(=O)c1ccc(Br)cc1", "note": "(stereo not drawn)", "hERG current change (%, negative = inhibition) at 1uM": 12.3}
{"molecule": "COC(=O)c1ccc(CSc2nc(C)nc3sc(C)c(C)c23)o1", "hERG current change (%, negative = inhibition) at 1uM": 12.3}
{"molecule": "O=C(CC1S/C(=N/N=C/c2cccs2)NC1=O)Nc1ccc(Cl)cc1", "note": "(stereo not drawn)", "hERG current change (%, negative = inhibition) at 1uM": 2.3}
{"molecule": "COC(=O)C(N)Cc1ccc(O)c(O)c1.Cl", "note": "(stereo not drawn)", "hERG current change (%, negative = inhibition) at 1uM": 5.95}
{"molecule": "CC(=O)NC(c1ccc([N+](=O)[O-])cc1)c1c(O)ccc2ccccc12", "note": "(stereo not drawn)", "hERG current change (%, negative = inhibition) at 1uM": 4.04}
{"molecule": "COC(=O)c1ccc(/C=N/OCC(=O)Nc2cc(F)ccc2F)cc1", "hERG current change (%, negative = inhibition) at 1uM": 4.52}
{"molecule": "Cc1cccc(N(CC(=O)NC2CCCC2)C(=O)c2cc3cc4cccc(C)c4nc3s2)c1C", "hERG current change (%, negative = inhibition) at 1uM": 11.7}
{"molecule": "CCOC(=O)/C(C#N)=C1/C=C(C)c2ccccc2N1", "hERG current change (%, negative = inhibition) at 1uM": 11.3}
{"molecule": "CC(=O)Nc1ccc(NC(=O)CN2CCCC(C)C2)c(Cl)c1", "note": "(stereo not drawn)", "hERG current change (%, negative = inhibition) at 1uM": -2.05}
{"molecule": "Cn1c(/N=C/c2cccs2)nc2ccccc21", "hERG current change (%, negative = inhibition) at 1uM": 12.8}
{"molecule": "COc1c(C)cc(NC(=O)c2ccc3c(c2)NC(=O)CO3)cc1C", "hERG current change (%, negative = inhibition) at 1uM": 12.2}
{"molecule": "CC(Sc1nnc(C2CCCCC2)n1N)C(=O)NCc1ccc2c(c1)OCO2", "note": "(stereo not drawn)", "hERG current change (%, negative = inhibition) at 1uM": 11}
{"molecule": "Cc1occc1-c1nnc(SCCNCCO)o1.O=C(O)C(=O)O", "hERG current change (%, negative = inhibition) at 1uM": 25.1}
{"molecule": "Cc1ccc2nsnc2c1S(=O)(=O)NCc1cccnc1", "hERG current change (%, negative = inhibition) at 1uM": 6.63}
{"molecule": "CCN(CC)S(=O)(=O)c1cccc(N=Nc2sc(N)nc2C)c1", "hERG current change (%, negative = inhibition) at 1uM": 11.6}
{"molecule": "Nc1scn[n+]1Cc1cccc2cccnc12.[Br-]", "hERG current change (%, negative = inhibition) at 1uM": 1.03}
{"molecule": "COc1cc(C2c3cc4c(cc3C(OC3OC5COC(c6cccs6)OC5C(O)C3O)C3COC(=O)C23)OCO4)cc(OC)c1O", "note": "(stereo not drawn)", "hERG current change (%, negative = inhibition) at 1uM": 17.8}
{"molecule": "Cc1ccc(C(C)n2cc(C(=O)NCc3ccncc3)nn2)cc1", "note": "(stereo not drawn)", "hERG current change (%, negative = inhibition) at 1uM": 4.48}
{"molecule": "CC(C)(C)C1CCC(=NNC(=S)NCc2ccccc2)CC1", "note": "(stereo not drawn)", "hERG current change (%, negative = inhibition) at 1uM": -3.94}
{"molecule": "CCN(CC)C(=O)c1[nH]cnc1C(=O)Nc1ccon1", "hERG current change (%, negative = inhibition) at 1uM": 11.2}
{"molecule": "Cc1ccc(/C(COc2ccccc2O)=N\\O)cc1", "hERG current change (%, negative = inhibition) at 1uM": 4.97}
{"molecule": "COc1ccc(C(=O)C(C)N(C(=O)c2ccc(Cl)cc2Cl)N2C(=O)C3C4C=CC(C4)C3C2=O)cc1", "note": "(stereo not drawn)", "hERG current change (%, negative = inhibition) at 1uM": 9.69}
{"molecule": "CCOC(=O)c1cncc(O)c1", "hERG current change (%, negative = inhibition) at 1uM": 10.8}
{"molecule": "CCCNC(=O)CSc1nccn1Cc1ccc(OC)cc1", "hERG current change (%, negative = inhibition) at 1uM": 10.9}
{"molecule": "Cn1c(=O)c2c(nc(Oc3cccc(O)c3)n2C)n(C)c1=O", "hERG current change (%, negative = inhibition) at 1uM": 15.9}
{"molecule": "Clc1nc(NC2CCCC2)nc(N2CCOCC2)n1", "hERG current change (%, negative = inhibition) at 1uM": 11.8}
{"molecule": "COc1cccc(NC(=O)c2ccc3c(c2)CCCC3)c1", "hERG current change (%, negative = inhibition) at 1uM": 8.93}
{"molecule": "C[C@@]12CCC=C[C@H]1[C@H](c1ccc(/C=C/c3ccccc3)cc1F)N(Cc1ccccc1)C2=O", "hERG current change (%, negative = inhibition) at 1uM": 19.1}
{"molecule": "COc1ccccc1CNC(=O)[C@@H]1CCCN1C(=O)[C@@H]1Cc2ccccc2CN1C(=O)OC(C)(C)C", "hERG current change (%, negative = inhibition) at 1uM": -0.37}
{"molecule": "CC1CCCCN1S(=O)(=O)c1ccc(S(=O)(=O)N(CC(=O)Nc2ccccc2)Cc2cccs2)cc1", "note": "(stereo not drawn)", "hERG current change (%, negative = inhibition) at 1uM": 30.4}
{"molecule": "O=[N+]([O-])c1ccc(N2CCN(S(=O)(=O)c3ccc4ccccc4c3)CC2)cc1NCc1ccco1", "hERG current change (%, negative = inhibition) at 1uM": 13.4}
{"molecule": "CN(c1nc2ccccc2n2c(C3CC3)nnc12)S(=O)(=O)c1ccccc1", "hERG current change (%, negative = inhibition) at 1uM": 17.6}
{"molecule": "O=C(Nc1nnc(Cc2ccccc2)s1)c1cccnc1", "hERG current change (%, negative = inhibition) at 1uM": 3.62}
{"molecule": "Cc1cc2[nH]c(=O)c(=O)[nH]c2cc1S(=O)(=O)Nc1cccc(Cl)c1C", "hERG current change (%, negative = inhibition) at 1uM": -0.643}
{"molecule": "CC1CSc2ccccc2NC1=S", "note": "(stereo not drawn)", "hERG current change (%, negative = inhibition) at 1uM": 10.9}
{"molecule": "O=C(c1ccc2c(c1)OCO2)C1CCCN(C2CCN(CCc3ccccc3)CC2)C1", "note": "(stereo not drawn)", "hERG current change (%, negative = inhibition) at 1uM": -38.9}
{"molecule": "O=S(=O)(NC1CCc2ccccc21)c1ccc(S(=O)(=O)N2CCCC2)cc1", "note": "(stereo not drawn)", "hERG current change (%, negative = inhibition) at 1uM": 1.4}
{"molecule": "COc1cc(C(=O)OCc2cc(=O)c(O)co2)ccc1OC(F)F", "hERG current change (%, negative = inhibition) at 1uM": 3.75}
{"molecule": "CCCC(C)NC(=S)Nc1cc(C)cc(C)c1", "note": "(stereo not drawn)", "hERG current change (%, negative = inhibition) at 1uM": -14.4}
{"molecule": "CSC1=N/C(=C\\C=C\\c2cccs2)C(=O)S1", "hERG current change (%, negative = inhibition) at 1uM": 11.1}
{"molecule": "Fc1ccccc1CSc1nnc(-c2ccccc2)o1", "hERG current change (%, negative = inhibition) at 1uM": 1.72}
{"molecule": "CC(=O)/C(=N\\Nc1cccc(Cl)c1)Sc1nnc(-c2ccccc2)n1-c1ccccc1", "hERG current change (%, negative = inhibition) at 1uM": 13.7}
{"molecule": "COc1cccc(/C=N/Nc2ccc([N+](=O)[O-])cn2)c1O", "hERG current change (%, negative = inhibition) at 1uM": 9.06}
